According to PubChem BioAssay AID1347428 (National Center for Advancing Translational Sciences (NCATS), 2020):
The whole screen tested about 91,000 compounds, of which about 290 (0.32%) were called active. The shares of active, inactive and inconclusive entries below differ from those in the screen. Calls come from the whole dose curve; as a rule, active = well fitted inhibition curve with a large enough effect; inconclusive = small, poorly fitted or top-dose-only effect; inactive = no such curve, though single readings can be large or run the other way. Potencies of inconclusive entries are doubtful fits and often do not repeat.

Target: Single-stranded DNA cytosine deaminase (Homo sapiens) (UniProt Q9GZX7)
UniProt Q9GZX7, sequence (Q9GZX7 whole entry, looked up): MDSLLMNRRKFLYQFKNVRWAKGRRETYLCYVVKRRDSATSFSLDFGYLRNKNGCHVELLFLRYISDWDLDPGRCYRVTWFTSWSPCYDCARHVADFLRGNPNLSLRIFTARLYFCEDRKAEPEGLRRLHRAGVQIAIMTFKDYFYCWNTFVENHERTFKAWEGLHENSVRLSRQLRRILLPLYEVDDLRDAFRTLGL
Experiment: Primary qHTS assay for inhibitors of Activation Induced Cytidine Deaminase (AID): AID signal; note: nearly all actives have a fitted effect of over 25% in size
Settings: AID deamination FRET fluorescence, UDG-coupled, 4 h; activity change, negative = inhibition: at 115 µM (top of the series)
From the text: Assay Provider (PI) Patricia Gearhart Ph.D.
National Institute on Aging
National Institute of Health (NIH), Bethesda, MD
Assay Provider (PI) Rahul Kohli Ph.D.
Perelman School of Medicine
University of Pennsylvania, Philadelphia, PA
Activation-Induced Deaminase (AID) is a cytosine deaminase which converts cytosine into uracil within stretches of ssDNA. The presence of uracil in DNA initiates a cascade of mutagenic DNA repair to introduce point mutations and DNA double strand breaks. Specific targeting of AID to the immunoglobulin heavy chain loci (Igh) promotes mutagenesis in the antibody variable region for somatic hypermutation (SHM) or switch regions leading to class switch recombination (CSR). However, AID also plays a role in accumulating unnecessary mutations across the genome. Mis-targeting of AID results in the initiation of tumor development and leads to greater drug resistance among cancer cells when continually expressed. To identify an AID inhibitor, a small molecule library will be screened in collaboration with NCATS core facility at NIH. To confirm biological function, inhibitors will be examined in an in vitro murine B-cell activation assay and subsequent secondary validation screens. Top molecules will be further screened to identify inhibitory efficacy against a wild type primary splenocytes assay. Using these approaches, we hope to identify a small molecule with great efficacy and low toxicity for use as a molecular probe to further characterize AID's intricacies, or even as a therapeutic.
A FRET based analysis of cytosine deamination, was developed to identify potential inhibitors of AID catalytic activity. This screen has two signal output, Read 1 evaluates the AID inhibition response. The second readout (Read 2) evaluates UDG response and is uses as a counterscreen to exclude false positive inhibitors. Inhibition in AID and inactivity in the UDG signal is the desired outcome for this assay.
SEQUENCE No. (e.g., 1, 2, 3, etc.); […] (e.g., Cells, Incubation, Reagent, etc.); VALUE; DESCRIPTION
1a; Reagent; 3 uL; [4/3x] 1 uM AID/2.67 U/mL UDG
1b; Reagent; 3 uL; 2 U/mL UDG
1c; Reagent; 3 uL; 1 uM AID
2a; Compound; 46 nL; Follow-up plates (0.64 uM - 10 mM)
2b; Control; 46 nL; ATA ([…] - 10 mM)
3; Time; 10 min; incubation at room temperature
5; Time; 4 hr; incubation at room temperature
6; Reagent; 4 uL; [2x] 250 mM NaOH
7; Time; 15 sec; centrifuge at 1000 rpm
8; Time; 30 min; incubation at room temperature
9a; Detection; fluorescence (Read 1: AID); EnVision (PerkinElmer) plate reader, 540 excitation and 590 emission filters
9b; Detection; fluorescence (Read 2: UDG); EnVision (PerkinElmer) plate reader, 560 excitation and 665 emission filters
NOTES (numbers refer to sequence above)
1a; Reagents were dispensed in a medium-binding black solid-bottom Greiner plates (789176F) using a BioRptr liquid dispenser. Dispense 3 uL of [4/3x] 1 uM AID (provided by Kohli lab) and [4/3x] 2 U/mL UDG (NEB M0280L) into columns 1, 2, 5 to 48.
1b; Dispense 3 uL of [4/3x] 2 U/mL UDG into column 3.
1c; Dispense 3 uL of [4/3x] 1 uM AID into column 4.
2a; Compound (7-points [uM] (0.64; 3.2; 16; 80; 400; 2,000; 10,000; 20,000) double pin-transferred (Dip Factor = 2) using the Kalypsys (Wako USA) pintool equipped with a 1536 pinhead for a final concentration range of 7.32 nM - 114 uM.
2b; 10 mM Aurintricarboxylic Acid (Sigma A1895) (ATA, 8-point, n = 2, 1:2.5 dilution in column 2) double pin-transferred (Dip Factor = 2) using the Kalypsys (Wako USA) pintool equipped with a 1536 pinhead for a [final] range of 186 nM - 114 uM.
3; Room temperature incubation.
4; Dispense 1 uL of substrate mixture from the Kohli lab [4x] […] DJC20 and [4x] 250 nM DJC23 into columns 1 to 48 .
5; Room temperature incubation.
6; Dispense 4 uL of substrate mixture [2x] 250 mM NaOH into columns 1 to 48.
7; Centrifugation step to remove bubbles.
8; Room temperature incubation
9a; Fluorescence signal (column label AID) was read using the EnVision plate reader. […]
% is set by controls: 0 for no effect and ±100 for the full control effect; potency is the fitted concentration of half-maximal effect; tags give direction and shape of the fitted curve.

SMILES | Potency | activity change, negative = inhibition
COc1cc(-c2cc(OC)c3c(C)oc(C)c3c(=O)c2)ccc1OC(=O)c1ccccc1C | inconclusive: 39.8 µM [inhibitor, partial curve, poor fit] | –
COc1cccc(NC(=O)CSc2nc3ccc(NC(=O)c4ccco4)cc3s2)c1 | inconclusive: 50.1 µM [inhibitor, partial curve, poor fit] | –
Cc1nn(C(=O)c2ccc(Cl)cc2)c(C)c1Sc1ccc(Cl)cc1 | inconclusive: 39.8 µM [inhibitor, partial curve] | –
Cc1ccn2c(Nc3ccc(F)cc3)c(-c3ccc(C)o3)nc2c1 | inconclusive: 39.8 µM [inhibitor, single point] | –
C=CCOc1ccccc1N | – | inactive: 3.3%
CCCn1c(=O)[nH]c(=O)c2c1nc(-c1ccc(C#N)cc1)n2CCN1CCOCC1 | – | inactive: 2.36%
COc1ccc(OC)c(NC(=O)CCn2cnnn2)c1 | inconclusive: 44.7 µM [inhibitor, single point] | –
COc1cc(C(=O)NCC(c2ccc(N(C)C)cc2)N2CCc3ccccc32)cc(OC)c1OC (stereo unspecified) | inconclusive: 22.4 µM [inhibitor, full curve] | –
Cc1ccc(OCC(=O)Nc2ccc(Cl)c(-c3nc4ncccc4o3)c2)cc1C | – | inactive: -14.9%
Cc1ccc(C)c(N2CCN(C(=O)c3cc4ccc5cccnc5c4[nH]3)CC2)c1 | inconclusive: 15.8 µM [inhibitor, full curve, poor fit] | –
Cc1cccc(NC(=O)COc2ccc3c(C)cc(=O)oc3c2)c1C | – | inactive: -2.09%
COC(=O)c1cc2oc3ccccc3c2n1Cc1cccc(C)c1 | inconclusive: 79.4 µM [inhibitor, single point] | –
Cc1ccc(NC(=O)N2CCC(N3CCN(Cc4ccccc4)C(=O)C3=O)CC2)cc1Cl | inconclusive: 56.2 µM [inhibitor, partial curve, poor fit] | –
CCOc1ccc(C2c3c(-c4ccc(C)cc4)n[nH]c3C(=O)N2c2ccc(Cl)cc2)cc1 (stereo unspecified) | inconclusive: 14.1 µM [inhibitor, full curve, poor fit] | –
Cc1cccc(OCC(=O)Nc2cc(-c3nn(C)c(=O)c4ccccc34)ccc2N2CCCCC2)c1 | inconclusive: 25.1 µM [inhibitor, full curve] | –
CCC(=O)Nc1sc2c(c1C#N)CCC(CC)C2 (stereo unspecified) | – | inactive: 16.3%
O=C(CC1N=C2c3ccccc3N=C(SCc3ccc(Cl)cc3)N2C1=O)NCCc1ccccc1 (stereo unspecified) | inconclusive: 17.8 µM [inhibitor, full curve, poor fit] | –
O=c1cc(CSc2ncn[nH]2)[nH]c2c(Cl)cccc12 | inconclusive: 89.1 µM [inhibitor, single point] | –
CCN(CC)c1ccc(C(=O)NCc2ccc3c(c2)CCN3C(=O)c2ccccc2)cc1 | – | inactive: 13.9%
Cc1ccc(C)c(N2CCN(C(=O)c3cnc4c(-c5ccccc5)c(C)nn4c3C)CC2)c1 | inconclusive: 20 µM [inhibitor, full curve, poor fit] | –
COc1cccc(NC(=O)Cn2cc(C(=O)C3CCCCC3)c3ccccc32)c1 | inconclusive: 12.6 µM [inhibitor, partial curve, poor fit] | –

SMILES | Potency | activity change, negative = inhibition
COc1ccc(CNC(=O)c2cc3c(-c4ccccc4F)nn(C)c3s2)c(OC)c1 | inconclusive: 39.8 µM [inhibitor, full curve, poor fit] | –
Cc1oc2c(c1C(=O)NCc1cccc(Br)c1)C1=NCCN1C=N2 | inconclusive: 20 µM [inhibitor, partial curve, poor fit] | –
Cc1nnc(N2CCN(C(=O)Nc3cc(F)ccc3F)CC2)c2nn(-c3ccc(Cl)cc3)c(C)c12 | inconclusive: 100 µM [inhibitor, single point] | –
CCOCCOc1cccc(N)c1 | – | inactive: 15.2%
COc1ccc(-c2nsc(NC(=O)c3ccccc3Br)n2)cc1 | – | inactive: -10%
CC(=O)N1CCc2c(sc3c2c(=O)n(CCc2ccccc2)c(=O)n3Cc2ccc(F)cc2)C1 | inconclusive: 50.1 µM [inhibitor, partial curve, poor fit] | –
CCOc1ccc(CCNC(=O)CSCc2nc(-c3cccc(C)c3)oc2C)cc1OCC | inconclusive: 50.1 µM [inhibitor, partial curve, poor fit] | –
O=C(COC(=O)CC12CC3CC(CC(C3)C1)C2)Nc1ccc([N+](=O)[O-])cc1C(F)(F)F | – | inactive: -2.15%
CC(=O)Oc1ccc(C2C(C#N)=C(N)OC3=C2C(=O)CC(C)(C)C3)cc1 (stereo unspecified) | – | inactive: -5.44%
COc1ccc(C2c3c(-c4ccccc4)n[nH]c3C(=O)N2c2ccc(C(=O)O)cc2)c(OC)c1 (stereo unspecified) | inconclusive: 89.1 µM [inhibitor, single point] | –
CCOC(=O)c1ccccc1NC(=O)N(Cc1ccc(CC)cc1)Cc1cn[nH]c1-c1ccc(OC)cc1 | inconclusive: 10 µM [inhibitor, partial curve, poor fit] | –
CCC1CN(C(=O)N2CCC(C(=O)NCCCc3ccccc3)CC2)c2cc(C)ccc2O1 (stereo unspecified) | inconclusive: 79.4 µM [inhibitor, single point] | –
Fc1ccccc1C(NCCc1ccc(Cl)cc1)c1nnc(-c2ccccc2)o1 (stereo unspecified) | inconclusive: 10 µM [inhibitor, full curve, poor fit] | –
Cc1ccc(-c2nc(CN3CCCC3c3nnc4ccccn34)co2)c(C)c1 (stereo unspecified) | – | inactive: -9.39%
CN(C)c1ccc(C(CNC(=O)c2ccc(C(C)(C)C)cc2)N2CCCC2)cc1 (stereo unspecified) | inconclusive: 50.1 µM [inhibitor, partial curve, poor fit] | –
CCN(C(=O)c1sc2nc3n(c(=O)c2c1C)CCCC3)c1ccccc1F | inconclusive: 17.8 µM [inhibitor, full curve, poor fit] | –
O=C(C1CCC1)N1CCc2cc(S(=O)(=O)NCCc3ccccc3)ccc21 | inconclusive: 50.1 µM [inhibitor, partial curve, poor fit] | –
Cc1ccc(C2N3CC4(C)CN2CC(C)(C3)C4=O)cc1 (stereo unspecified) | – | inactive: -8.84%
CCCCN(CC)C(=O)CCCn1c(=O)c2cccn2c2ccccc21 | inconclusive: 70.8 µM [inhibitor, partial curve, poor fit] | –
Clc1cccc(-n2cc(-c3ccccc3)c3c(NC4CCCC4)ncnc32)c1 | inconclusive: 44.7 µM [inhibitor, partial curve, poor fit] | –
